Structures are written as SMILES. In all, about 310,000 compounds went through this assay and about 14,000 (4.5%) showed an effect of 50% or more. The effect is printed as a negative number. The list shows a part of the results.

Experimental findings from paper PMC4336329 (PLoS ONE, 2015) are described below.
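Further: peak tail current of the secondary pulse compared with the same well before compound.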

The target in this test is human ether-à-go-go-related gene (hERG) potassium channel (human, UniProt Q12809). Briefly: primary screen, population patch clamp on CHO cells stably expressing hERG.
human ether-à-go-go-related gene (hERG) potassium channel, sequence (Q12809 whole entry, looked up): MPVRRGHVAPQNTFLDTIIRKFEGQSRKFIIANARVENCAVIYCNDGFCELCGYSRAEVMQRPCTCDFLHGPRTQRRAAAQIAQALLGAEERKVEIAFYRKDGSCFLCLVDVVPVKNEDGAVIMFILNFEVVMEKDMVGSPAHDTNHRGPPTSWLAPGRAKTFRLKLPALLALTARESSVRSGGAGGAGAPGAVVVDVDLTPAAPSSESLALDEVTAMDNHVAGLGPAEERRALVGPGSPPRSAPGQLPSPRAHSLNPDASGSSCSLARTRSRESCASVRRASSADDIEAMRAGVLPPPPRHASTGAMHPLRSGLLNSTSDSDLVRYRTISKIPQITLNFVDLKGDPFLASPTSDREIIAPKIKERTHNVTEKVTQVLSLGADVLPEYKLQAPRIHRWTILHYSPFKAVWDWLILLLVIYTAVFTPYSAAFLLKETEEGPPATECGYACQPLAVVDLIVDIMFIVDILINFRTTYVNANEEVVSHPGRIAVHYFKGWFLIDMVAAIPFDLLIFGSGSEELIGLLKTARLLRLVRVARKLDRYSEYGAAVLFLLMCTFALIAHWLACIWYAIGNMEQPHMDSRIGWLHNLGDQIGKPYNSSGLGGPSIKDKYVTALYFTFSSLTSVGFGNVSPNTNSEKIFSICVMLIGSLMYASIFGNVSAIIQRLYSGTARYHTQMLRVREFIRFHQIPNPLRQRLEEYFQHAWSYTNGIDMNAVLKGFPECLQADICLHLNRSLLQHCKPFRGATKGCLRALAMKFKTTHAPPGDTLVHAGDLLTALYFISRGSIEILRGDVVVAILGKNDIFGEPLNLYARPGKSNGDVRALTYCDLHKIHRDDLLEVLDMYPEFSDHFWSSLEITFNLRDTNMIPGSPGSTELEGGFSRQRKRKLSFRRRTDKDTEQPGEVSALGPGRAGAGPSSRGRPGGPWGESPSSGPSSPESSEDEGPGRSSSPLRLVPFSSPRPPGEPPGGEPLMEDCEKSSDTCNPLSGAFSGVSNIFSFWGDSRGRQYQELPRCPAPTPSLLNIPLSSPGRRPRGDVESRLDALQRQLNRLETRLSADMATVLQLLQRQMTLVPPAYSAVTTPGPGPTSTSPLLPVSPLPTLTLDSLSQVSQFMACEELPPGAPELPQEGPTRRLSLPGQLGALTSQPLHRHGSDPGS
Regarding `Br.CC(=O)c1cccc(N=c2scc(-c3ccc(S(=O)(=O)N4CCOCC4)cc3)n2CCO)c1`, the “hERG current change (%, negative = inhibition) at 10uM” value was -41%.

Regarding `CCc1ccc(OCC(=O)OC2CCS(=O)(=O)C2)cc1` (centres unmarked), the “hERG current change (%, negative = inhibition) at 10uM” value was 1.48%.

Regarding `Cc1ccc(-n2nc3ccc(NC(=O)C(C)C)cc3n2)cc1`, the “hERG current change (%, negative = inhibition) at 10uM” value was 18.9%.

For `CSC(=NNC(=O)c1ccc(O)cc1)SC`, the “hERG current change (%, negative = inhibition) at 10uM” value was found to be 11.7%. For the compound `CSc1nnc(C(C)(C)C)c(=O)n1/N=C/c1ccccc1`, the “hERG current change (%, negative = inhibition) at 10uM” value was -9.16%.

Consider `Oc1ccccc1N1CCN(c2ncnc3scc(-c4ccccc4)c23)CC1`, for which the “hERG current change (%, negative = inhibition) at 10uM” value stood at 4.04%. As for `CC(=O)N(C1=C(N)C(=O)c2ccccc2C1=O)C(C)C`, the “hERG current change (%, negative = inhibition) at 10uM” value is reported as 18.4%. For `O=C(Nc1ccc(Cl)cc1Cl)c1ccc(Br)o1`, the “hERG current change (%, negative = inhibition) at 10uM” value is recorded as 10.7%.

Consider `CCC(=O)Nc1ccccc1C(=O)OCC(=O)c1cccc2ccccc12`, for which the “hERG current change (%, negative = inhibition) at 10uM” value is -8.15%. Next, `Cn1c(=O)oc2cc(S(=O)(=O)NCCN3CCCCCC3)ccc21`: 9.75%; `CC(C)(C)C(CN1CCCC1)OC(=O)c1ccccc1.Cl` (centres unmarked): -0.126%.

As to `COCC1CCN(C(=O)c2cc(COc3ccc(C)c(C)c3)on2)C1` (centres unmarked), the “hERG current change (%, negative = inhibition) at 10uM” value is recorded as -16%. The result for `COc1ccc(-c2ocnc2C(=O)N2CCN(C(=O)C(c3ccccc3)c3ccccc3)CC2)cc1` reads -10.3%. The result for `CC(C)CCN1CCNC(=O)C1CC(=O)Nc1ccc(F)cc1` (centres unmarked) reads -0.605%; that for `Cc1cc(N2CCOCC2)nc2ccc(NC(=S)N3CCN(Cc4ccccc4)CC3)cc12`, -33.6%; that for `CCOc1ccc(OCCC(=O)OCC(=O)NCCc2ccc(S(N)(=O)=O)cc2)cc1`, -4.49%. As for `C=CCc1ccc(OCC(O)CN2CCN(c3ccccc3OC)CC2)c(OC)c1.Cl` (centres unmarked), the “hERG current change (%, negative = inhibition) at 10uM” value is given as -16.2%. Next, `CCCc1nc(SCc2ccc(Cl)cc2Cl)n[nH]1`: -25.6%. On to `O=C(c1ccc2ncsc2c1)N1CCN(c2nc3ccccc3s2)CC1`, for which the “hERG current change (%, negative = inhibition) at 10uM” value was -12%.

On to `CCOc1ccccc1NC(=O)NC1Cc2ccccc2C1`, for which the “hERG current change (%, negative = inhibition) at 10uM” value turned out to be 24.5%. Next, `CN1CCN(NC(=O)CN2C(=O)/C(=C/c3ccccc3F)SC2=S)CC1`: -6.73%. With `Cl.N[C@@H](Cc1ccc(O)cc1)c1nnc([C@H](CCC(=O)O)NC(=O)C2CCNCC2)o1`, the “hERG current change (%, negative = inhibition) at 10uM” value is reported as 6.03%. Next, `O=C(NCCCC1CCCC1)C1CCC(=O)N(Cc2ccccc2F)C1` (centres unmarked): -9.03%; `CCOC(=O)c1nn(-c2ccc(F)cc2)c(=O)cc1OCC(=O)Nc1ccc(OCC)cc1`: -3.74%; `CC(C)Cc1nnc(NC(=O)CC(C)c2ccccc2)s1` (centres unmarked): 2.75%.

For `O=C(c1cccs1)N(Cc1ccco1)C1CCS(=O)(=O)C1` (centres unmarked), the “hERG current change (%, negative = inhibition) at 10uM” value is -13.5%. The result for `CC(Sc1nnc(NC2CCCCC2)s1)C(=O)Nc1ccc2c(c1)C(=O)c1ccccc1C2=O` (centres unmarked) reads -10.1%; that for `COC(=O)C1=C(c2ccc(Cl)c(C(F)(F)F)c2)C[C@@H]2CC[C@H]1N2C(=O)NCCCOC(C)C`, -29.8%; that for `O=C(NNC(=O)c1ccc2ccccc2c1O)Nc1ccc(F)cc1`, 10.3%. Next, `CC(=O)N1CCN(C(=S)c2cccc([N+](=O)[O-])c2)CC1`: 8.96%; `Cc1ccc(CNCC(=O)Nc2ccc(C)cc2Br)cc1`: -10.2%. Next, `CCCCNCCOCCOc1ccc(Cl)cc1Br.O=C(O)C(=O)O`: -57.9%. For the compound `O=C(CC12CC3CC(CC(C3)C1)C2)Nc1ccc(C(=O)O)cc1`, the “hERG current change (%, negative = inhibition) at 10uM” value is reported as -2.49%. Consider `COc1ccc(OCc2cc(C(=O)N3CCCCCC3)no2)c(Cl)c1`, for which the “hERG current change (%, negative = inhibition) at 10uM” value is on record as -11.7%. The result for `COc1cc(C(=O)NCc2nnc(SCC(=O)NCc3ccccc3)o2)cc(OC)c1OC` reads 17.6%; that for `Cc1ccc(OCCNC(=O)c2ccc(C)cc2)cc1`, 0.523%; that for `O=C(N/N=C/c1ccc(O)cc1)c1ccncc1`, 23.6%. The result for `CC(C)Cn1c(CCC(N)=O)nnc1SC(C)C(=O)Nc1ccc2c(c1)OCO2` (centres unmarked) reads 7.42%. Next, `Cc1cc(=O)oc(C)c1C(=O)N1CCc2c([nH]c3ccccc23)C1C(C)C` (centres unmarked): -2.64%; `CCCN1CCC(=NNc2ccc(S(=O)(=O)N3CCOCC3)cc2[N+](=O)[O-])CC1`: -17.5%. In the case of `Cc1ccc(N2C(=O)c3ccccc3C2=O)nc1`, the “hERG current change (%, negative = inhibition) at 10uM” value was 19.7%.

On to `COCCCN1C(=O)C(=O)/C(=C(/O)c2ccc(S(=O)(=O)N3CCOCC3)cc2)C1c1ccc(F)cc1` (centres unmarked), for which the “hERG current change (%, negative = inhibition) at 10uM” value is reported as -2.75%.

In the case of `O=C(O)C(=O)O.c1ccc2c(CCNC3CCCCC3)c[nH]c2c1`, the “hERG current change (%, negative = inhibition) at 10uM” value is recorded as -6.11%. In the case of `CCCCN(C)CCNC(=O)c1cn(C)c(=O)c2c1c1ccccc1n2C`, the “hERG current change (%, negative = inhibition) at 10uM” value is on record as 2.23%.
